Drawing on PubChem BioAssay AID360 (National Center for Advancing Translational Sciences (NCATS), 2006), this text covers Potency for 93 compounds.

The structures appear in SMILES notation. The whole screen tested about 48,000 compounds, of which about 550 (1.1%) were called active. About 4% were inconclusive and are not listed. No stated cut-off is given here; in the data, active means potency below about 15 µM; inconclusive means mostly about 16 µM to 33 µM; inactive means weaker than that. Some of the results follow. A value given as a limit tells only on which side of the number the result lay.
Potency means the concentration at half of the fitted maximal effect.

Sequence of UniProt P04062 (P04062 whole entry, looked up): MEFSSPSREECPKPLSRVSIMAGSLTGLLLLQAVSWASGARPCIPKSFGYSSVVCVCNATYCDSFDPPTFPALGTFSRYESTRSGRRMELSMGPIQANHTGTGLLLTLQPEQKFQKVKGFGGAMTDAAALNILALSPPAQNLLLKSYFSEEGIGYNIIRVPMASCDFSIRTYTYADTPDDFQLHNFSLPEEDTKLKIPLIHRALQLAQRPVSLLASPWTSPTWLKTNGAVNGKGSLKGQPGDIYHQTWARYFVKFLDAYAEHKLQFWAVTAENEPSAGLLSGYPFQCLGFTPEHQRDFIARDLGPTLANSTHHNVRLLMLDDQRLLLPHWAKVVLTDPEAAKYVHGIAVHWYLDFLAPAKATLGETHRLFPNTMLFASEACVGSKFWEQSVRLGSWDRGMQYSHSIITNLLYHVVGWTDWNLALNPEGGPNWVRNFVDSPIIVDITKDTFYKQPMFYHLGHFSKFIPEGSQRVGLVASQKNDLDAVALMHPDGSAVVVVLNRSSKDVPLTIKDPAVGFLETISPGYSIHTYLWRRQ

This assay has as its target Lysosomal acid glucosylceramidase (Homo sapiens) (UniProt P04062). The assay is described as follows: Glucocerebrosidase.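 Further: the screen sought inhibitors.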 As to conditions: purified enzyme, resorufin glucoside fluorescence (screen aimed at inhibitors), 20 min. The essentials:
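Compounds titrated against 0.2 nM normal enzyme, 30 uM resorufin beta-D-glucopyranoside substrate, citrate/phosphate buffer with taurocholate and tween-20, pH 5.9. Reaction ran 20 min at room temperature; fluorescence (Ex 548/Em 600) gave AC50.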
Regarding `COc1ccc(CCNC(=O)c2cc(-c3ccccc3)on2)cc1OC`, the Potency is inactive: > 76.9 µM.
The value for `COc1cccc(-c2csc(N3CCN(C(=O)C4CCCCC4)CC3)n2)c1` was inactive: > 76.9 µM.
The value for `C/C(Cl)=C/Cn1c(SCc2ccc(Cl)cc2)nc2c1c(=O)[nH]c(=O)n2C` was inactive: > 76.9 µM; that for `CCN=C1SC(C(=O)NCCc2ccccc2)CC(=O)N1CC` (stereo not drawn) was inactive: > 76.9 µM; that for `CCOc1ccccc1Nc1nnc(SCC(=O)N2CCCC2)s1` was inactive: > 76.9 µM.
The value for `COc1ccc(C(=O)c2ccc(OC)c(OC)c2)cc1OC` was inactive: > 76.9 µM.
Take `CC(=O)Nc1ccc(S(=O)(=O)N(C)c2ccc(O)cc2)cc1`: the Potency was inactive: > 76.9 µM.
To `O=S(=O)(NCc1cn2ccccc2n1)c1cc(F)ccc1F` belongs inactive: > 76.9 µM.
For the compound `CCc1nnc(NC(=O)CSc2nnc(COc3ccccc3C)o2)s1`, the Potency entry was “inactive”.
The value for `O=S(=O)(c1ccc2c(c1)C(=NO)c1cc(S(=O)(=O)N3CCCCC3)ccc1-2)N1CCCCC1` was “inactive”; that for `CC1=C(C(N)=O)C(c2cccc(OCc3ccccc3)c2)n2nnnc2N1` (stereo not drawn) was inactive: > 76.9 µM; that for `CCOC(=O)C1=C(C)Nc2nc(SC)nn2C1c1ccc(C(=O)OC)cc1` (stereo not drawn) was inactive: > 76.9 µM.
To `Cn1cnnc1SCc1ccc(C#N)cc1` belongs inactive: > 76.9 µM.
Regarding `OCC1OC(n2nc3ccccc3n2)C(O)C(O)C1O` (stereo not drawn), the Potency is inactive: > 76.9 µM.
The value for `CCCc1cc(C(N)=S)ccn1` was inactive: > 76.9 µM; that for `NC(=O)CSc1nc(O)cc(=O)n1-c1ccccc1` was inactive: > 76.9 µM.
To `Cc1cccc(-c2nnc(-c3ccc(N)cc3)o2)c1` belongs inactive: > 76.9 µM; to `Cc1ccc(C2CC(=O)c3cnc(N4CCN(c5ccccc5)CC4)nc3C2)cc1` (stereo not drawn), inactive: > 76.9 µM.
Regarding `O=C(COC(=O)c1cnccn1)Nc1ccc2c(c1)OCO2`, the Potency was inactive: > 76.9 µM.
Take `c1ccc(-c2nc(NCc3ccco3)c3ccccc3n2)nc1`: the Potency is inactive: > 76.9 µM.
To `N=C1C(c2nc3ccccc3[nH]2)=C(O)CN1c1ccccc1` belongs inactive: > 15.4 µM.
As to `CN(C#N)c1nc(N2CCOCC2)nc(N2CCOCC2)n1`, the Potency is inactive: > 76.9 µM.
For `CCS(=O)(=O)N1CCC(NC(C)=O)(c2ccccc2)CC1`, the Potency is inactive: > 76.9 µM.
With `CCNC(=O)C1CCCN1S(=O)(=O)c1ccc(OC)cc1` (stereo not drawn), the Potency is inactive: > 76.9 µM.
On to `O=C(C1CCC(=O)N1C1CCCCC1)N1CCN(c2ccc(F)cc2)CC1` (stereo not drawn), for which the Potency was inactive: > 76.9 µM.
For `COC(=O)c1cc(NC(=O)CSc2nc(C)cc(=O)[nH]2)cc(C(=O)OC)c1`, the Potency was inactive: > 76.9 µM.
To `CC(OC(=O)c1cccs1)C(=O)NCC1CCCO1` (stereo not drawn) belongs inactive: > 76.9 µM; to `CCOC(=O)c1c(NC(=O)OC)sc2c1CCC2`, inactive: > 76.9 µM; to `CCOC(=O)c1ccc(NC(=O)CSc2nnc(-c3cccs3)n2C)cc1`, inactive: > 76.9 µM.
The value for `Clc1ccc(-n2nnnc2-c2ccccc2)cc1` was inactive: > 76.9 µM.
To `CN(c1ccccc1C(=O)O)S(C)(=O)=O` belongs inactive: > 76.9 µM.
In the case of `CCN(C(=O)CN1CCN(c2ccccc2)CC1)c1c(N)n(Cc2ccccc2)c(=O)[nH]c1=O`, the Potency is inactive: > 76.9 µM.
To `COc1cc(C(=O)Nc2nc3ccc(S(=O)(=O)N4CCOCC4)cc3s2)cc(OC)c1OC` belongs inactive: > 76.9 µM.
The value for `O=C(Nc1nccs1)C1CCN(S(=O)(=O)c2ccc3c(c2)OCCCO3)CC1` was inactive: > 76.9 µM.
Regarding `COc1ccc(C(CNC(=O)c2ccc3c(c2)C(=O)N(CCC(C)C)C3=O)N2CCOCC2)cc1` (stereo not drawn), the Potency result was “inactive”.
To `O=C(NCCN1CCOCC1)N1CCOCC1` belongs inactive: > 76.9 µM.
Consider `CN(C)C(=O)Cn1c(SCC(=O)N2CCCc3ccccc32)nc2ccccc21`, for which the Potency is inactive: > 76.9 µM.
Turning to `O=C(NCc1cccs1)C1CC(c2ccccc2O)=NO1` (stereo not drawn), the Potency is inactive: > 76.9 µM.
The value for `CCCCc1nc2n[nH]c(N)c2c2c1CCC2` was inactive: > 76.9 µM; that for `O=C(CNC(=O)Cn1ccc2ccccc2c1=O)NCCCN1CCCCCC1` was inactive: > 76.9 µM; that for `O=C(CCC1N=C2c3ccccc3N=C(SCc3cccc(Cl)c3)N2C1=O)NCc1ccco1` (stereo not drawn) was inactive: > 76.9 µM.
Take `CCOC(=O)N1CCC(N(CCCOC)C(=O)Nc2cccc(OC)c2)CC1`: the Potency was inactive: > 76.9 µM.
To `Cc1cccc(NCC(O)Cn2cnc3c2c(=O)n(C)c(=O)n3C)c1` (stereo not drawn) belongs inactive: > 76.9 µM; to `O=c1c(Cc2ccccc2)c(O)nc2n1CCS2`, inactive: > 76.9 µM.
The value for `CC(C)c1ccc(-c2nc(N3CCCC3)nc3n[nH]c(N)c23)cc1` was inactive: > 76.9 µM.
The value for `CC(C)(C)n1nnnc1C(c1ccc2ncccc2c1)N1CCSCC1` (stereo not drawn) was inactive: > 76.9 µM; that for `CN(Cc1cccs1)c1ncnc2sccc12` was inactive: > 76.9 µM; that for `CCNC(=O)CC1SC(=Nc2cccc(Cl)c2C)N(C)C1=O` (stereo not drawn) was inactive: > 76.9 µM.
As for `Cc1[nH]c(=O)[nH]c(=O)c1S(=O)(=O)N(C)Cc1ccccc1`, the Potency was inactive: > 76.9 µM.
The value for `COc1ccccc1CNC(=O)c1ccc(CS(=O)(=O)c2ccccc2OC)o1` was inactive: > 76.9 µM; that for `OC1CCCCC1Sc1nc2ccccc2s1` (stereo not drawn) was inactive: > 76.9 µM.
To `COc1ccccc1Nc1nc(N)nc(CSc2ncccn2)n1` belongs inactive: > 76.9 µM.
The value for `O=C1NCN(c2ccccc2)C12CCN(c1nnnn1-c1ccccc1)CC2` was inactive: > 76.9 µM.
On to `Cc1nc2ncnn2c(C)c1CCC(=O)N1CCc2ccccc21`, for which the Potency was inactive: > 76.9 µM.
To `COc1cccc(NC(=O)N2CCN(Cc3nc4ccccc4c(=O)[nH]3)CC2)c1` belongs inactive: > 76.9 µM; to `CCn1c(SCc2ccc(OC)cc2)nnc1-c1ccncc1`, inactive: > 76.9 µM.
The value for `CNc1ccccc1-n1ccc(-c2ccccc2)n1` was inactive: > 76.9 µM; that for `Cc1cc(O)c(C(C)C)cc1NC(=O)Cn1nc(C)c2ccccc2c1=O` was inactive: > 76.9 µM.
In the case of `O=C(NCc1ccccc1)c1n[nH]nc1-c1ccccc1O`, the Potency is inactive: > 76.9 µM.
The value for `O=C(CSc1ncccn1)NC(=O)NCc1ccccc1` was inactive: > 76.9 µM; that for `CCn1c(COc2ccccc2C)nnc1SCC(=O)NCc1ccccc1` was inactive: > 76.9 µM; that for `O=C(COC(=O)c1ccc(N2CCCC2=O)cc1)NCc1ccco1` was inactive: > 76.9 µM.
Take `O=C1NCCCC2c3cc(O)c4ccccc4c3OC12N1CCCCC1` (stereo not drawn): the Potency was inactive: > 76.9 µM.
In the case of `COc1ccc(N2CCN(Cc3cc(=O)oc4cc(-c5ccccc5)c(O)cc34)CC2)cc1`, the Potency is inactive: > 76.9 µM.
Consider `Clc1ccc(CSc2nnc(Cn3cnc4ccccc43)o2)cc1`, for which the Potency was inactive: > 76.9 µM.
Regarding `CCNC(=O)CC1C(=O)N(c2cccc(OC)c2)C(=O)N1CCOC` (stereo not drawn), the Potency was inactive: > 76.9 µM.
To `COC(=O)C1=C(C)OC(N)=C(C#N)C1c1cc(OC)ccc1OC` (stereo not drawn) belongs inactive: > 76.9 µM; to `COC(=O)c1cn(-c2ccccc2)nc1C(=O)OC`, inactive: > 76.9 µM; to `O=C1SC(c2ccccc2)=N/C1=C/c1ccco1`, inactive: > 76.9 µM.
As to `Cc1ccc(C(C)C)c(OCc2ccc(-c3nnco3)cc2)c1`, the Potency was inactive: > 76.9 µM.
For `CCOC(=O)C1=C(C)OC(N)=C(C#N)C1c1cc(OC)c2c(c1)OCO2` (stereo not drawn), the Potency was inactive: > 76.9 µM.
In the case of `O=C(O)C1CCCN1C(=O)c1cccs1` (stereo not drawn), the Potency is inactive: > 76.9 µM.
In the case of `Cn1c(=O)c(C(=S)NC(=O)C2CC2)c(N)n(Cc2ccccc2)c1=O`, the Potency was inactive: > 76.9 µM.
For `COC(=O)c1sc(NC(=O)c2cc3c(s2)CCCC3)nc1C`, the Potency was inactive: > 76.9 µM.
To `Cc1ccn2cc(C(=O)Nc3nnc(C)s3)nc2c1` belongs inactive: > 76.9 µM; to `Cn1c(SCC(=O)NCc2ccc(F)cc2)nc2ccccc21`, inactive: > 76.9 µM.
Take `C=CCNC(=O)CN(c1ccc(F)c(Cl)c1)S(C)(=O)=O`: the Potency was inactive: > 76.9 µM.
With `CCOC(=O)CCN(Cc1cccs1)S(=O)(=O)c1ccc(Cl)cc1`, the Potency was inactive: > 76.9 µM.
With `O=C1c2ccccc2C(=O)N1CCn1c(=O)oc2ccccc21`, the Potency is inactive: > 76.9 µM.
As for `Cc1cc2c3c(c1C)C1(C(=O)N3C(C)(C)CC2C)C(C#N)=C(N)Oc2n[nH]c(C)c21` (stereo not drawn), the Potency was inactive: > 76.9 µM.
In the case of `Cc1sc2nc(SCC(=O)OC(C)C)n(C)c(=O)c2c1C`, the Potency is inactive: > 76.9 µM.
As for `CN1CCN(P(=O)(c2ccccc2)c2nc3ccccc3s2)CC1` (stereo not drawn), the Potency is inactive: > 76.9 µM.
Regarding `COC(=O)c1ccc(CSc2nccn2C)cc1`, the Potency was inactive: > 76.9 µM.
On to `Cn1c(=O)c2c(nc(CN3CCN(C(=O)c4ccco4)CC3)n2Cc2ccc(F)cc2)n(C)c1=O`, for which the Potency is inactive: > 76.9 µM.
The value for `O=C(NCCN1CCN(Cc2ccccc2)CC1)C1c2ccccc2C(=O)N2CCc3ccccc3C12` (stereo not drawn) was inactive: > 76.9 µM; that for `c1ccc(-c2nnc(SCc3cn4ccsc4n3)o2)cc1` was inactive: > 76.9 µM; that for `CC(C)CC(c1nnnn1C(C)C)N1CCN(c2cccc(Cl)c2)CC1` (stereo not drawn) was inactive: > 76.9 µM.
For the compound `Cc1ccc(C(=O)NCc2cccs2)cc1S(=O)(=O)N1CCCCC1`, the Potency is inactive: > 76.9 µM.
On to `CC(=O)Oc1ccc2c(C)c(CC(C)O)c(=O)oc2c1` (stereo not drawn), for which the Potency is inactive: > 76.9 µM.
Regarding `O=C(CSc1nc(-c2ccco2)cc(C(F)(F)F)n1)Nc1cccnc1`, the Potency is inactive: > 76.9 µM.
As to `CCOC(=O)C1CCN(C(=O)CN2C(=O)C(CC)Oc3ccccc32)CC1` (stereo not drawn), the Potency is inactive: > 76.9 µM.
The value for `CCCCCC(=O)OC(CN1CCCCC1)CN1CCCC1=O` (stereo not drawn) was inactive: > 76.9 µM; that for `O=C(CSc1nnc(CNc2ccccc2)o1)N1CCCc2ccccc21` was inactive: > 76.9 µM.
